{
  "source": "PubChem BioAssay AID1030",
  "about": "(National Center for Advancing Translational Sciences (NCATS), 2008)",
  "note": "Out of some 220,000 compounds screened, about 16,000 (7.3%) were called active. The shares of active, inactive and inconclusive entries below differ from those in the screen. Calls follow the shape of the dose curve; as a rule, active = well fitted inhibition curve with a large enough effect (not every such curve was filed as active); inconclusive = small, poorly fitted or top-dose-only effect, or another doubt; inactive = no such curve, though single readings can be large or run the other way. No potency is given beside an inconclusive call; the fits are too rough. Potency is read from the fitted curve at half-maximal effect; tags tell the direction and shape of the fitted curve.",
  "data": [
    {"molecular_target": "Aldehyde dehydrogenase 1A1 (Homo sapiens) (UniProt P00352)", "sequence (P00352 whole entry, looked up)": "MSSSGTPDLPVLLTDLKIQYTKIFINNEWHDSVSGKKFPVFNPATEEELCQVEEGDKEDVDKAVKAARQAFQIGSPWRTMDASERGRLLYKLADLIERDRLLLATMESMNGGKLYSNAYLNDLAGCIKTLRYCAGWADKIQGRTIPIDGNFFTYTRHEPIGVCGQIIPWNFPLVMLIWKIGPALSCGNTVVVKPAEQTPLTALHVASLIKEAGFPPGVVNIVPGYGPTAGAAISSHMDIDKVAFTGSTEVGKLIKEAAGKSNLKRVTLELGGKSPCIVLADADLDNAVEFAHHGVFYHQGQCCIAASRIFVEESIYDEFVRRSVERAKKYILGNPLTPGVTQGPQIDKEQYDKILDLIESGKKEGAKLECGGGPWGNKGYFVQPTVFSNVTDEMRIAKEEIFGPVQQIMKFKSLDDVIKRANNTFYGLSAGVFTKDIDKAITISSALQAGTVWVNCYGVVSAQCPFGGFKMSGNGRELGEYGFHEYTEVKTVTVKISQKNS", "test": "qHTS Assay for Inhibitors of Aldehyde Dehydrogenase 1 (ALDH1A1)", "conditions": "Purified ALDH1A1, NADH fluorescence, propionaldehyde substrate; series mostly up to 75.3 µM", "values": [
      {"smiles": "COc1cc2c(cc1OC)C1C(=O)c3c(O)cc4c(c3OC1CO2)C=CC(C)(C)O4", "note": "(stereo not drawn)", "Potency": "inconclusive [inhibitor, single point]"},
      {"smiles": "Cc1cc2cc(CCNC(=O)c3ccc(S(=O)(=O)N4CCOCC4)cc3)c(=O)[nH]c2cc1C", "Potency": "inconclusive [inhibitor, partial curve]"},
      {"smiles": "CCCCSc1nc(SCC(=O)NCc2ccco2)c2c3c(sc2n1)COC(C)(CC)C3", "note": "(stereo not drawn)", "Potency": "active: 22.4 µM"},
      {"smiles": "COc1ccccc1N1CCN(C(CNS(C)(=O)=O)c2cccnc2)CC1", "note": "(stereo not drawn)", "Potency": "active: 10 µM"},
      {"smiles": "CCN(CC)S(=O)(=O)c1ccc(NC(=S)NC(=O)CC(C)C)cc1", "Potency": "inactive"},
      {"smiles": "COc1cccc([C@@H]2Oc3ccc(OC)cc3C[C@H]2OC(=O)N[C@H]2CCCc3ccccc32)c1", "Potency": "inconclusive [inhibitor, single point]"},
      {"smiles": "CCS(=O)(=O)N1CCN(Cc2c[nH]c3ccccc23)CC1", "Potency": "inconclusive [inhibitor, single point]"},
      {"smiles": "CCCCC(O)(CCCC)C(=O)NN(C(=O)CCl)c1ccccc1", "Potency": "active: 3.98 µM"},
      {"smiles": "C=CCOC(=O)C(C#N)c1nc2ccccc2nc1N1CCCC1", "note": "(stereo not drawn)", "Potency": "inconclusive [inhibitor, partial curve]"},
      {"smiles": "O=C(O)c1cc(Br)ccn1", "Potency": "inconclusive [inhibitor, full curve]"},
      {"smiles": "CCN1CCc2nc(NC(=O)Cc3ccc4c(c3)OCCO4)sc2C1", "Potency": "inconclusive [inhibitor, single point]"},
      {"smiles": "Oc1c(Br)cc(C2N=C(c3ccccc3Cl)NO2)cc1Br", "note": "(stereo not drawn)", "Potency": "inconclusive [inhibitor, single point]"},
      {"smiles": "CSc1nc(C)c(C(=O)C[n+]2ccccc2)cc1C#N", "Potency": "inconclusive [inhibitor, single point]"},
      {"smiles": "O=C(CCS(=O)(=O)c1ccc(Cl)cc1)N1CCN(c2ccccc2F)CC1", "Potency": "inconclusive [inhibitor, single point]"},
      {"smiles": "CCCN1C(=O)/C(=C/c2ccc(C)o2)SC1=Nc1ccc(OCC)cc1", "Potency": "active: 7.94 µM"},
      {"smiles": "O=C1NC(c2cn(-c3ccccc3)nc2-c2cccs2)C(C(=O)c2cccnc2)C(O)(C(F)(F)F)N1", "note": "(stereo not drawn)", "Potency": "inconclusive [inhibitor, single point]"},
      {"smiles": "CCN(CCCNC(=O)Cn1ncc2c(=O)oc3ccccc3c21)c1cccc(C)c1", "Potency": "inactive"},
      {"smiles": "Cc1ccc(OCC(=O)N/N=C\\c2ccc(-c3cccc(C(=O)O)c3)o2)c(C)c1", "Potency": "inconclusive [inhibitor, single point]"},
      {"smiles": "C=CCN=c1scc(-c2ccccc2)n1/N=C/c1ccccn1", "Potency": "inactive"},
      {"smiles": "CCC(C)NC(=O)c1ccc(CS(=O)(=O)Cc2ccc(Cl)cc2)o1", "note": "(stereo not drawn)", "Potency": "inconclusive [inhibitor, single point]"},
      {"smiles": "Cc1cc(C(=O)COC(=O)C2CCN(C(=O)c3ccc(Cl)cc3)CC2)c(C)n1CC1CCCO1", "note": "(stereo not drawn)", "Potency": "inconclusive [inhibitor, single point]"},
      {"smiles": "CCCCN1C=C(C(=O)OC)C(c2ccccc2C(F)(F)F)C(C(=O)OC)=C1", "Potency": "inconclusive [inhibitor, partial curve]"},
      {"smiles": "O=C(O)CCCCCNS(=O)(=O)c1cccc2c1C(=O)c1ccccc1C2=O", "Potency": "inconclusive [inhibitor, single point]"},
      {"smiles": "COc1ccc(CCNC2CC(=O)N(CCc3ccccc3)C2=O)cc1", "note": "(stereo not drawn)", "Potency": "inconclusive [inhibitor, single point]"},
      {"smiles": "COc1ccc(NC(=O)Cc2ccc(Cl)c(Cl)c2)cn1", "Potency": "inactive"},
      {"smiles": "CNC(=O)COC(=O)c1cc(=O)[nH]c2ccccc12", "Potency": "inconclusive [inhibitor, single point]"},
      {"smiles": "N#CCSc1nc2ccccc2c(=O)n1CCC(=O)NC1CCCCC1", "Potency": "inconclusive [inhibitor, partial curve]"},
      {"smiles": "Cc1ccc(C)c(N(CC(=O)N/N=C/c2ccc(-c3ccc([N+](=O)[O-])cc3)o2)S(=O)(=O)c2ccccc2)c1", "Potency": "inconclusive [inhibitor, single point]"},
      {"smiles": "CCn1c(SCC(=O)N2CCN(c3ccccc3)CC2)nc2c(c1=O)SC(C)C2", "note": "(stereo not drawn)", "Potency": "active: 2.24 µM"},
      {"smiles": "CCS(=O)(=O)c1nc(S(=O)(=O)c2ccc(C)cc2)c(NCCCN(C)C)s1", "Potency": "inconclusive [inhibitor, single point]"},
      {"smiles": "CCOC(=O)C1=C(c2ccccc2)NC(=O)NC1c1ccc(OC)cc1", "note": "(stereo not drawn)", "Potency": "inactive"},
      {"smiles": "O=C(COc1ccc(F)cc1)N1CCC(c2ccccc2)C1", "note": "(stereo not drawn)", "Potency": "inconclusive [inhibitor, single point]"},
      {"smiles": "CCOc1ccc(CC(=O)Nc2nccs2)cc1OCC", "Potency": "inconclusive [inhibitor, single point]"},
      {"smiles": "O=C(Nc1ccc(Br)c2ccccc12)c1ccc2ccccc2c1O", "Potency": "inconclusive [inhibitor, single point]"},
      {"smiles": "O=c1cc(-c2ccccc2)nc2n1Cc1ccccc1-2", "Potency": "inconclusive [inhibitor, single point]"},
      {"smiles": "CN1c2ccccc2-c2nc3ccccc3n2C1c1cccs1", "note": "(stereo not drawn)", "Potency": "inconclusive [inhibitor, partial curve]"},
      {"smiles": "CCOC(=O)Cn1nnnc1C(CC)N(Cc1cccs1)Cc1cc2cc(C)ccc2[nH]c1=O", "note": "(stereo not drawn)", "Potency": "inconclusive [inhibitor, single point]"},
      {"smiles": "Cc1ccc(C2Oc3ccccc3C3=C2C(c2cccs2)n2ncnc2N3)cc1", "note": "(stereo not drawn)", "Potency": "active: 11.2 µM"},
      {"smiles": "O=c1c2ccccc2oc2nc(-c3ccco3)n(CCc3ccccc3)c(=O)c12", "Potency": "inactive"},
      {"smiles": "Cc1ccccc1N1C(=O)c2ccccc2N2C(=O)c3ccccc3C12", "note": "(stereo not drawn)", "Potency": "inconclusive [inhibitor, single point]"},
      {"smiles": "CC(C)C(C)NC(=O)COC(=O)c1cc(S(=O)(=O)N(C)C)ccc1N1CCCC1", "note": "(stereo not drawn)", "Potency": "inconclusive [inhibitor, single point]"},
      {"smiles": "CCOC(=O)N1CCN(C(=O)/C(=C/c2cccc3ccccc23)NC(=O)c2ccc(OC)cc2)CC1", "Potency": "inconclusive [inhibitor, partial curve]"},
      {"smiles": "C=CCNC(=S)NNC(=O)CSc1nc2ccccc2s1", "Potency": "inconclusive [inhibitor, single point]"},
      {"smiles": "COC(=O)c1cc(NS(=O)(=O)c2ccc(N3CCOCC3)c(N)c2)cc(C(=O)OC)c1", "Potency": "inactive"},
      {"smiles": "CCOC(=O)c1c(C)oc2c1c(C=NCc1ccccn1)c(O)c1ccccc12", "Potency": "inconclusive [inhibitor, single point]"},
      {"smiles": "Brc1ccc(/C=N/Nc2ncnc3c2cnn3Cc2ccccc2)cc1", "Potency": "inactive"},
      {"smiles": "CC(O)CN(CCC(N)=O)CCC(N)=O", "note": "(stereo not drawn)", "Potency": "inactive"},
      {"smiles": "Cc1ccc(/C=N/NC(=O)C2(O)c3ccccc3-c3ccccc32)o1", "Potency": "inconclusive [inhibitor, single point]"},
      {"smiles": "CCCCn1c(N)c(N(CCOC)C(=O)COc2ccc(Cl)cc2)c(=O)[nH]c1=O", "Potency": "inactive"},
      {"smiles": "Cc1ccc(Oc2ccc(NC(=O)CCC(=O)OCC(=O)c3cccs3)cc2)cc1C", "Potency": "inconclusive [inhibitor, single point]"},
      {"smiles": "O=C(NCc1ccc(F)cc1)N[C@@H](Cc1ccccc1)C(=O)O", "Potency": "inconclusive [inhibitor, single point]"},
      {"smiles": "O=C(C[n+]1ccc2ccccc2c1)c1ccc2ccc3ccccc3c2c1", "Potency": "inconclusive [inhibitor, partial curve]"},
      {"smiles": "O=c1c(Cc2ccc(Cl)cc2)c(O)ccn1Cc1ccccc1", "Potency": "inactive"},
      {"smiles": "COc1cc(-c2nc3ccccn3c2/N=C/c2cccc(OC)c2O)ccc1O", "Potency": "inconclusive [inhibitor, partial curve]"},
      {"smiles": "C/C(N)=C(/C#N)C(=O)CSc1nc2scc(-c3ccc(F)cc3)c2c(=O)n1C", "Potency": "active: 15.8 µM"},
      {"smiles": "O=C(CCN1C(=O)S/C(=C\\c2cccs2)C1=O)NC1=NCCS1", "Potency": "inconclusive [inhibitor, partial curve]"},
      {"smiles": "CCCCCCn1c(SCCN2CCOCC2)nc2c1c(=O)[nH]c(=O)n2C", "Potency": "inactive"},
      {"smiles": "O=c1c2ccccc2nc(-c2ccc(Br)cc2)n1Cc1ccccc1", "Potency": "inconclusive [inhibitor, partial curve]"},
      {"smiles": "O=S(=O)(c1ccc2c(c1)OCCO2)N1CCc2ccccc21", "Potency": "inconclusive [inhibitor, partial curve]"},
      {"smiles": "COc1cc(/C=C(/C(=O)c2cccs2)c2nc3ccccc3[nH]2)cc(OC)c1O", "Potency": "inconclusive [inhibitor, single point]"},
      {"smiles": "O=C(Nc1ccccc1)c1cccnc1Nc1ccccc1", "Potency": "inconclusive [inhibitor, single point]"},
      {"smiles": "CCOC(=O)c1cc2c(=O)n3cccc(C)c3nc2n(CCCOC)c1=NC(=O)c1cccnc1", "Potency": "inconclusive [inhibitor, partial curve]"},
      {"smiles": "O=C(NC1=NN(c2ccccc2)CC1)Nc1ccccc1F", "Potency": "inconclusive [inhibitor, single point]"},
      {"smiles": "Cc1cc(/C=C(\\C#N)C(=O)Nc2ccccc2)c(C)n1-c1ccc2c(c1)OCO2", "Potency": "inconclusive [inhibitor, single point]"},
      {"smiles": "O=C(c1cccc(OC(F)F)c1)N1CCN(c2ncccn2)CC1", "Potency": "inactive"},
      {"smiles": "CCN1C(=O)/C(=C/c2cnn(CC)c2C)SC1=S", "Potency": "active: 2 µM"},
      {"smiles": "COc1ccc(CC(=O)Nc2ccc3c(C)cc(=O)oc3c2)cc1OC", "Potency": "inconclusive [inhibitor, partial curve]"},
      {"smiles": "Cc1nnc(SCC(=O)N2c3ccccc3Sc3ccccc32)n1N", "Potency": "inconclusive [inhibitor, single point]"}
    ]}
  ]
}
